Data published in the supplement of paper PMC4604168 (melanoma cell lines).
Some of the results follow. Single values are uncertain, as repeats are few or missing.

Key:
Assay in all cases: cell count relative to DMSO control; melanoma cells; higher = more viable cells
Settings in all cases: library dose: low library concentration; 72 h
MZ2-MEL = system: MZ2-MEL
MeWo = system: MeWo
RPMI7951 = system: RPMI7951
RVH-421 = system: RVH-421
SkMel28 = system: SkMel28
SkMel2 = system: SkMel2
SkMel30 = system: SkMel30
SkMel5 = system: SkMel5
UACC257 = system: UACC257
UACC62 = system: UACC62
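Further: cell number obtained by counting DAPI-stained nuclei in high-throughput microscope images with image analysis software, screen run in 1,536-well plates.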

| Structure (SMILES) | cell count (MZ2-MEL) [%] | cell count (MeWo) [%] | cell count (RPMI7951) [%] | cell count (RVH-421) [%] | cell count (SkMel28) [%] | cell count (SkMel2) [%] | cell count (SkMel30) [%] | cell count (SkMel5) [%] | cell count (UACC257) [%] | cell count (UACC62) [%] |
| --- | --- | --- | --- | --- | --- | --- | --- | --- | --- | --- |
| Cn1nnc2c(C(N)=O)ncn2c1=O [temozolomide] + OCCn1cc(-c2cnc3nnn(Cc4ccc5ncccc5c4)c3n2)cn1 [PF04217903] (first compound 2 µM, partner dose 1 µM) | 94.7 | 91.5 | 94 | 72.8 | 79 | 96.6 | 88.4 | 96.9 | 115 | 84.3 |
| O=C(O)c1ccc2c(c1)nc(Nc1cccc(Cl)c1)c1ccncc12 + COc1ccc(COc2ccc(Cc3cnc(N)nc3N)cc2OC)cc1 [GW2580] (first compound 0.4 µM, partner dose 1 µM) | 90.3 | 103 | 98.5 | 108 | 112 | 104 | 98.6 | 95 | 102 | 99.9 |
| O=C(O)[C@@H]1[O][Sb](=[O])([O][Sb]2(=[O])[O][C@H]([C@H](O)CO)[C@H](O)[C@H](C(=O)O)[O]2)[O][C@H]([C@H](O)CO)[C@@H]1O (stereo not given in full) [stibogluconate] + O=C(Nc1ccccc1)c1cc([N+](=O)[O-])ccc1Cl [GW9662] (first compound 2 µM, partner dose 2 µM) | 104 | 100 | 121 | 129 | 120 | 94.8 | 106 | 110 | 93.9 | 95.5 |
| O=C(O)[C@@H]1[O][Sb](=[O])([O][Sb]2(=[O])[O][C@H]([C@H](O)CO)[C@H](O)[C@H](C(=O)O)[O]2)[O][C@H]([C@H](O)CO)[C@@H]1O (stereo not given in full) [stibogluconate] + c1cc(-c2cnn3cc(-c4ccc(OCCN5CCCCC5)cc4)cnc23)ccn1 [Dorsomorphin] (first compound 2 µM, partner dose 0.4 µM) | 97.6 | 113 | 85.4 | 115 | 96.4 | 113 | 110 | 89.5 | 94 | 107 |
| O=C(O)c1ccc2c(c1)nc(Nc1cccc(Cl)c1)c1ccncc12 + CN(C)S(=O)(=O)c1ccc2c(c1)/C(=C/c1cc3c([nH]1)CCCC3)C(=O)N2 [SU6656] (first compound 0.4 µM, partner dose 0.4 µM) | 95.2 | 83.7 | 101 | 92.1 | 88.1 | 114 | 95.2 | 80.6 | 93.7 | 88.4 |
| O=C(O)[C@@H]1[O][Sb](=[O])([O][Sb]2(=[O])[O][C@H]([C@H](O)CO)[C@H](O)[C@H](C(=O)O)[O]2)[O][C@H]([C@H](O)CO)[C@@H]1O (stereo not given in full) [stibogluconate] + COc1ccc(-c2ccc3c(N4CCOCC4)nc(N4C[C@@H](C)O[C@@H](C)C4)nc3n2)cc1CO [KU0063794] (first compound 2 µM, partner dose 0.02 µM) | 96.2 | 87.4 | 94.1 | 14.4 | 89.3 | 90.4 | 88.2 | 106 | 83.6 | 103 |
| Cc1cc(N2CCOCC2)cc2[nH]c(-c3c(NC[C@@H](O)c4cccc(Cl)c4)cc[nH]c3=O)nc12 + OCCn1cc(-c2cnc3nnn(Cc4ccc5ncccc5c4)c3n2)cn1 [PF04217903] (first compound 0.2 µM, partner dose 1 µM) | 98.5 | 91 | 120 | 95.9 | 90.2 | 87.7 | 89.9 | 96.4 | 121 | 97.7 |
| O=C(Nc1cc(C(F)(F)F)cc(C(F)(F)F)c1)c1cc(Cl)ccc1O + CCN(CC)CCNC(=O)c1c(C)[nH]c(/C=C2\C(=O)Nc3ccc(F)cc32)c1C [sunitinib] (first compound 0.016 µM, partner dose 0.4 µM) | 104 | 87.6 | 104 | 114 | 117 | 122 | 98.4 | – | – | 101 |
| O=C(Nc1cc(C(F)(F)F)cc(C(F)(F)F)c1)c1cc(Cl)ccc1O + COc1ccc(Cl)c(Nc2nc3ccccc3nc2NS(=O)(=O)c2cccc(NC(=O)C(C)(C)N)c2)c1 [XL147] (first compound 0.016 µM, partner dose 0.8 µM) | 87.2 | 89.6 | 125 | 103 | 94.2 | 103 | 101 | – | – | 92.3 |
| O=C(O)[C@@H]1[O][Sb](=[O])([O][Sb]2(=[O])[O][C@H]([C@H](O)CO)[C@H](O)[C@H](C(=O)O)[O]2)[O][C@H]([C@H](O)CO)[C@@H]1O (stereo not given in full) [stibogluconate] + COc1cc(Nc2ncc(F)c(Nc3ccc4c(n3)NC(=O)C(C)(C)O4)n2)cc(OC)c1OC [Tamatinib] (first compound 2 µM, partner dose 0.4 µM) | 89.7 | 96.4 | 64.9 | 95.7 | 92.3 | 99.5 | 106 | 91.7 | 59.1 | 86.3 |
| O=C(Nc1cc(C(F)(F)F)cc(C(F)(F)F)c1)c1cc(Cl)ccc1O + Oc1nc(-c2ccc(C(F)(F)F)cc2)nc2c1CSCC2 [XAV939] (first compound 0.016 µM, partner dose 2 µM) | 99.9 | 91.2 | 104 | 109 | 86.9 | 102 | 107 | 97.8 | 81.6 | 94.9 |
| O=C(O)[C@@H]1[O][Sb](=[O])([O][Sb]2(=[O])[O][C@H]([C@H](O)CO)[C@H](O)[C@H](C(=O)O)[O]2)[O][C@H]([C@H](O)CO)[C@@H]1O (stereo not given in full) [stibogluconate] + C#Cc1cccc(Nc2ncnc3cc(OCCOC)c(OCCOC)cc23)c1 [erlotinib] (first compound 2 µM, partner dose 0.8 µM) | 103 | 88.3 | 101 | 104 | 118 | 94.5 | 93.7 | – | – | 91.3 |
| Cn1nnc2c(C(N)=O)ncn2c1=O [temozolomide] + O=C(Nc1cccc(Cl)c1)Nc1ncc(CCNc2ncnc3ccsc23)s1 [SNS314] (first compound 2 µM, partner dose 0.0008 µM) | 90.2 | 112 | 95.9 | 74.4 | 73.2 | 108 | 105 | 94.7 | 88.8 | 83.6 |
| O=C(Nc1cc(C(F)(F)F)cc(C(F)(F)F)c1)c1cc(Cl)ccc1O + CCCS(=O)(=O)Nc1ccc(F)c(C(=O)c2c[nH]c3ncc(Cl)cc23)c1F [PLX4720] (first compound 0.016 µM, partner dose 0.08 µM) | 88.3 | 91 | 109 | 82.2 | 90.7 | 99.6 | 87.6 | – | – | 77.1 |
| O=C(Nc1cc(C(F)(F)F)cc(C(F)(F)F)c1)c1cc(Cl)ccc1O + N#Cc1c(O)c2c(-c3ccc(-c4ccccc4O)cc3)csc2[nH]c1=O [A769662] (first compound 0.016 µM, partner dose 2 µM) | 94.7 | 86 | 111 | 110 | 96.2 | 115 | 94.6 | 91.5 | 80.7 | 92.3 |
| O=C(Nc1cc(C(F)(F)F)cc(C(F)(F)F)c1)c1cc(Cl)ccc1O + CC(C)(C)c1cnc(CSc2cnc(NC(=O)C3CCNCC3)s2)o1 [SNS-032] (first compound 0.016 µM, partner dose 0.01 µM) | 102 | 106 | 92.8 | 104 | 93.5 | 103 | 81.2 | 116 | 81 | 88 |
| O=C(O)c1ccc2c(c1)nc(Nc1cccc(Cl)c1)c1ccncc12 + O=C1NC(=O)/C(=C/c2ccc(-c3ccc(F)cc3O)o2)S1 [AS252424] (first compound 0.4 µM, partner dose 1 µM) | 88 | 87 | 80.4 | 113 | 98 | 94.2 | 87.7 | 83.9 | 87.9 | 92.3 |
| O=C(Nc1cc(C(F)(F)F)cc(C(F)(F)F)c1)c1cc(Cl)ccc1O + Cn1c(=O)n(-c2ccc(C(C)(C)C#N)cc2)c2c3cc(-c4cnc5ccccc5c4)ccc3ncc21 [NVP-BEZ235] (first compound 0.016 µM, partner dose 0.004 µM) | 94.9 | 106 | 88.2 | 87.5 | 105 | 105 | 97.3 | – | – | 89 |
